Several values for one entry are separate records, joined by “and”; a condition that tells them apart may be missing. Equal values may be shown once. The shares of active, inactive and inconclusive entries below differ from those in the screen. Potencies beside an inconclusive call are fits to weak or partial responses and may not hold up. Activity calls are given as the source filed them. The call rests on the fitted dose curve; in most records, active means well fitted curve in the direction sought with a large enough effect in the repeat runs; inconclusive means weak or mixed curves; inactive means no such curve, though single readings can be large; an effect the other way counts as inactive or inconclusive.
Key:
[1] = qHTS assay for identifying genotoxic compounds that show differential cytotoxicity against isogenic chicken DT40 cell lines with known DNA damage response pathways - wild type cell line (AID 743012); conditions: DT40 wild type chicken cells viability, CellTiter-Glo, 40 h; activity change, negative = cytotoxicity: at 68.4 µM (top of the series) unless noted; further: nearly all actives have a fitted effect of over 60% in size; on activity change, negative = cytotoxicity: on the % scale 0 is the no-effect control and ±100 the full control effect
Method in brief: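 Quantitative HTS on parental DT40 cells: 40 h compound treatment at 37 C/5% CO2, with viability then determined by CellTiter-Glo luminescence. Values serve as the DNA repair-proficient reference for differential cytotoxicity.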

[2] = qHTS assay for identifying genotoxic compounds that show differential cytotoxicity against isogenic chicken DT40 cell lines with known DNA damage response pathways - Rev3 mutant cell line (AID 743014); conditions: chicken DT40 Rev3-/- viability, CellTiter-Glo, 40 h; activity, negative = cytotoxicity: at 68.4 µM (top of the series) unless noted; further: nearly all actives have a fitted effect of over 55% in size; on activity, negative = cytotoxicity: on the % scale 0 is the no-effect control and ±100 the full control effect
[3] = qHTS assay for identifying genotoxic compounds that show differential cytotoxicity against isogenic chicken DT40 cell lines with known DNA damage response pathways - Rad54/Ku70 mutant cell line (AID 743015); conditions: DT40 Rad54/Ku70 mutant viability, CellTiter-Glo, 40 h; activity change, negative = cytotoxicity: at 66.8 µM (top of the series); further: nearly all actives have a fitted effect of over 60% in size
Potency means the concentration at half of the fitted maximal effect; tags describe the fitted curve by direction and shape.

Structure (SMILES)	Potency [1]	Potency [2]	Potency [3]	activity change, negative = cytotoxicity [1]
C=C[Si]1(C)O[Si](C)(C=C)O[Si](C)(C=C)O[Si](C)(C=C)O1 (stereo unspecified)	inconclusive: 68.6 µM [cytotoxic, single point]	inconclusive: 68.6 µM [cytotoxic, single point]	inconclusive: 68.6 µM [cytotoxic, single point]	
COC(Cc1ccccc1)OC		inactive		inconclusive: 38.7%
Cc1ccc(=O)n(-c2ccccc2)c1	inactive	inconclusive: 23.7 µM [rising, partial curve, poor fit]		
COC(=O)[C@@H]1[C@H]2C[C@H]3c4[nH]c5ccccc5c4CCN3C[C@@H]2CC[C@@H]1O	inconclusive: 33.5 µM [cytotoxic, single point]	inconclusive: 18.8 µM [cytotoxic, partial curve, poor fit]	inconclusive: 33.5 µM [cytotoxic, single point]	
CC[C@H](C)C(=O)O[C@H]1C[C@H](O)C=C2C=C[C@H](C)[C@H](CC[C@@H](O)C[C@@H](O)CC(=O)O)[C@H]21	inconclusive: 2.66 µM [cytotoxic] and inactive	inconclusive: 211 nM [cytotoxic, full curve] and inconclusive: 43.3 µM [cytotoxic, partial curve]	inconclusive: 6.68 µM [cytotoxic, full curve] and inconclusive: 68.6 µM [cytotoxic]	
C=CC[N+]1([C@H]2C[C@H]3[C@@H]4CC[C@H]5C[C@H](OC(C)=O)[C@@H](N6CCCCC6)C[C@]5(C)[C@H]4CC[C@]3(C)[C@H]2OC(=O)CC)CCCCC1	inconclusive: 33.5 µM [cytotoxic, single point]	inconclusive: 33.5 µM [cytotoxic, partial curve, poor fit]	inconclusive: 33.5 µM [cytotoxic]	

From PubChem BioAssay (Tox21)
